Paper PMC12040169 (PLOS Biology, 2025)
This is one part of the list.

tested on: T1, C. trachomatis L2/434/Bu expressing GFP (CTL2-GFP); parameters: species or system HeLa; C. trachomatis total inclusion area by high-content imaging, normalised to DMSO; details: total inclusion area; 28.5 h, 10 µM; inhibitor
T1 construct: L2/434/Bu GFP intracellular growth in HeLa cells
Outline: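 Imaging read-out: GFP inclusions and Hoechst nuclei captured by high-content imaging after fixation. Inclusion area/number = chlamydial growth; nuclei count = host cell viability. MIC calculated per earlier method.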

| SMILES | % of control remaining |
| --- | --- |
| O=C(O)c1ccc(/C=N/Nc2nc(N3CCOCC3)nc(N3CCOCC3)n2)cc1 [CBK262433] | 95.1568 |
| C=CCOc1ccc(CNc2cccc(C(=O)O)c2)cc1OC [CBK074468] | 89.5918 |
| Cc1ccc(OCC(=O)NCCCN(C)C)cc1 [CBK263595] | 98.5769 |
| Cc1ncccc1COC(=O)NCCc1ccccn1 [CBK200137] | 130.443 |
| CCOC(=O)C(C)N1C(=O)S/C(=C/c2cc(Cl)c(OCC(=O)O)c(Br)c2)C1=O (stereo not shown) [CBK265163] | 101.682 |
| O=c1cc(C(F)F)c2cn(C3CCCC3)nc2[nH]1 [CBK288016] | 95.8646 |
| O=C(c1n[nH]c2c1CCC2)N1CCC(c2ccccc2)C1 (stereo not shown) [CBK281851] | 77.7463 |
| COc1ccc(NC(=O)Nc2nn(Cc3c(F)cccc3Cl)cc2Br)c(OC)c1 [CBK266834] | 109.479 |
| Cc1ccccc1C(=O)NCC(=O)NCc1csc(-c2ccccc2)n1 [CBK092334] | 116.363 |
| CCN(Cc1ccccc1)Cc1c(O)ccc2c(=O)c(-c3ccccc3OC)c(C(F)(F)F)oc12 [CBK265839] | 81.9485 |
| O=C(c1ccc(Cl)cc1)c1ccc(OCC(=O)N2CCN(C(=O)c3ccco3)CC2)cc1 [CBK295658] | 100.897 |
| Cc1nc(C(=O)NCC2CN3CCCN2CC3)ccc1C(=O)O (stereo not shown) [CBK304242] | 68.0649 |
| CCc1c(C)nc2ccccc2c1SCCC(=O)N(C)C [CBK149718T] | 105.74 |
| CN1CCN(C(=O)Nc2cccc(-c3nc(-c4ccc(C#N)cc4)cnc3N)c2)CC1 [CBK116251] | 98.1415 |
| Cc1cc(C(=O)N2CCn3cc(C(F)(F)F)nc3C2)on1 [CBK282430] | 84.9141 |
| CCCSc1ncc(Cl)c(C(=O)Nc2ccc(C(=O)OC)cc2)n1 [CBK268824] | 71.7916 |
| CCN(CC)CCN(CCc1ccc(OC)c(OC)c1)C(=O)Nc1ccc(Cl)cc1 [CBK160510] | 74.0251 |
| Cc1ccn(-c2ccc(N3CCC(OC4CCCC4)CC3)nn2)n1 [CBK306301] | 30.1611 |
| O=c1c(N2CCC(Sc3ccccc3)CC2)nccn1Cc1ccc([N+](=O)[O-])cc1 [CBK153654] | 93.3266 |
| COc1ccc(-c2n[nH]c(=S)n2CC(=O)Nc2ccc(NC(=O)CC(C)C)cc2)cc1 [CBK295342] | 94.3809 |

| SMILES | % of control remaining |
| --- | --- |
| Cc1ccccc1CCNC(=O)CCc1c(C)nc2nc(N)nn2c1C [CBK304994] | 70.7353 |
| COc1cc(C=Cc2nc3cc(Cl)ccc3s2)ccc1OCC(=O)O [CBK297886] | 69.2058 |
| c1ccc2c(c1)n(CCN1CCOCC1)c1nc(C34CC5CC(CC(C5)C3)C4)cn21 [CBK278154C] | 102.207 |
| CC(=O)NC1(CC(=O)N2CC[C@H]3NC(=O)COc4ccccc4C/C=C/C[C@H]3C2)CCCCC1 [CBK292117] | 113.503 |
| Oc1cccc(-c2cncc(NCCCN3CCOCC3)n2)c1 [CBK037858] | 106.369 |
| O=C(NCc1cccnc1)c1ncoc1-c1cccs1 [CBK283974] | 85.581 |
| CO[C@@]12CC[C@H](OCC(=O)O)C[C@@H]1N(Cc1c(C)cnn1C)CC2 [CBK306638] | 98.2314 |
| CC1CCCCN1S(=O)(=O)c1ccc(-n2ncc(Cl)c(Cl)c2=O)cc1 (stereo not shown) [CBK305035] | 37.1774 |
| CCCN(C(=O)CCn1c(=O)oc2cc(Cl)ccc21)C1CCNC1 (stereo not shown) [CBK304311C] | 51.4049 |
| COc1ccc(CNC(=O)c2cc(S(=O)(=O)N3CCCCC3)cs2)cc1 [CBK307590] | 93.6196 |
| COCC1CCCN(Cc2cn(C)nc2C(C)(C)C)C1 (stereo not shown) [CBK304818] | 45.4846 |
| O=[N+]([O-])c1ccc(CN2CCN(Cc3c[nH]c4ccccc34)CC2)cc1 [CBK218620] | 88.8982 |
| Nc1ncncc1-c1noc([C@@H]2CCCN2c2ncccn2)n1 [CBK288901] | 102.547 |
| CC(=O)N1CC[C@H](c2nc3cccc(C(N)=O)c3[nH]2)C1 [CBK289415] | 123.955 |
| O=[N+]([O-])c1ccc(/C=C/c2nn3c(Cn4cnc5ccccc54)nnc3s2)cc1 [CBK268273] | 111.763 |
| CCOC(=O)N1CCC(NC(=O)N2CCCC(CO)C2)CC1 (stereo not shown) [CBK156345] | 69.7181 |
| COc1ccc2ncc3c(c2c1)NCCNC3=O [CBK291168] | 96.9026 |
| COc1ccccc1-c1cnccc1-n1ccnc1 [CBK177153] | 68.4272 |
| Fc1ccc2[nH]c3c(c2c1)CCN1C(c2ccncc2)N2CCC31CC2 (stereo not shown) [CBK284437] | 59.4032 |
| Nc1cc2ccccc2c(-c2ccc3c(c2)OCCCO3)n1 [CBK085722] | 80.0825 |
